{"source": "the supplement of paper PMC7826260", "note": "The other results are listed elsewhere or left out. Cleavage of a single-stranded DNA pool by Rep nickase domains was read by sequencing for 1 h at 37 °C with 3 µM enzyme; only the middle of the 90-letter strands is printed. Values are log2 of uncut reads against the no-enzyme pool; more negative means more cut, near 0 not cut, and no call is made. Counts are relative to all reads; values above 0 arise when much of the pool is cut."}
{"test_system": "T1, Rep nickase domain of tomato golden mosaic virus", "T1 sequence (residues 1-124 of Rep, tag left off)": "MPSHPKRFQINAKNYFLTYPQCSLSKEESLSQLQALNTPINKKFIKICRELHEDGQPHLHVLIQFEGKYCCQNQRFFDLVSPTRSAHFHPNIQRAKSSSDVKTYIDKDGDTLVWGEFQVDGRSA", "test": "uncleaved DNA left, log2 of reads against the no-enzyme library (log2 ratio); higher = less cleavage (more negative = more Rep cleavage of the k-mer); sequences stand for … in CTCGTCCG…ACCGGAGA", "procedure": "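A pool of 90-nt single-stranded DNAs with seven random bases just before the constant AC of the nick site (name = the seven bases) was cut by 3 µM recombinant His6-SUMO-tagged Rep nickase domain (300 nM DNA, 50 mM HEPES pH 8.0, 50 mM NaCl, 1 mM MnCl2, 1 h, 37 °C, three replicates). Uncut DNA was amplified and sequenced.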"}
{"sequence": "GGGTGCG", "uncleaved DNA left (log2)": 0.0684}
{"sequence": "CAGGATT", "uncleaved DNA left (log2)": 0.0777}
{"sequence": "TCAAGGG", "uncleaved DNA left (log2)": -0.021}
{"sequence": "AAAGCTA", "uncleaved DNA left (log2)": 0.206}
{"sequence": "AAGCAAT", "uncleaved DNA left (log2)": -0.0212}
{"sequence": "CTAACAA", "uncleaved DNA left (log2)": 0.0176}
{"sequence": "CCTCTCT", "uncleaved DNA left (log2)": -0.0704}
{"sequence": "CGGAAGA", "uncleaved DNA left (log2)": 0.013}
{"sequence": "AACTCAT", "uncleaved DNA left (log2)": 0.0859}
{"sequence": "GCTCGAT", "uncleaved DNA left (log2)": -0.0666}
{"sequence": "AGTACGC", "uncleaved DNA left (log2)": -0.114}
{"sequence": "AGGGTTG", "uncleaved DNA left (log2)": 0.106}
{"sequence": "CCTACTG", "uncleaved DNA left (log2)": -0.285}
{"sequence": "ACGGGGC", "uncleaved DNA left (log2)": -0.00584}
{"sequence": "ACGATCT", "uncleaved DNA left (log2)": -0.196}
{"sequence": "CGATGAT", "uncleaved DNA left (log2)": 0.0753}
{"sequence": "ACTTTTA", "uncleaved DNA left (log2)": -0.0618}
{"sequence": "ATGAGAA", "uncleaved DNA left (log2)": 0.105}
{"sequence": "GCCTTGG", "uncleaved DNA left (log2)": 0.047}
{"sequence": "GCATCCT", "uncleaved DNA left (log2)": -0.132}
{"sequence": "ACTTGCG", "uncleaved DNA left (log2)": -0.0794}
{"sequence": "CAGGATC", "uncleaved DNA left (log2)": 0.255}
{"sequence": "TCAGCCG", "uncleaved DNA left (log2)": -0.0818}
{"sequence": "TATCTAC", "uncleaved DNA left (log2)": -0.0708}
{"sequence": "AACAACA", "uncleaved DNA left (log2)": -0.0299}
{"sequence": "TATACAG", "uncleaved DNA left (log2)": 0.0604}
{"sequence": "CAGGCAC", "uncleaved DNA left (log2)": 0.021}
{"sequence": "AAACAGC", "uncleaved DNA left (log2)": 0.0352}
{"sequence": "CCCCGTA", "uncleaved DNA left (log2)": 0.256}
{"sequence": "ATTTTGG", "uncleaved DNA left (log2)": 0.0156}
{"sequence": "CATCCTT", "uncleaved DNA left (log2)": 0.00391}
{"sequence": "ATCAAAT", "uncleaved DNA left (log2)": 0.0257}
{"sequence": "ATACGGG", "uncleaved DNA left (log2)": 0.0881}
{"sequence": "AAATGAT", "uncleaved DNA left (log2)": -1.85}
{"sequence": "AACCACC", "uncleaved DNA left (log2)": -0.0594}
{"sequence": "ACCCGGA", "uncleaved DNA left (log2)": 0.113}
{"sequence": "AGGTAAA", "uncleaved DNA left (log2)": 0.0263}
{"sequence": "ATCTGGT", "uncleaved DNA left (log2)": -0.13}
{"sequence": "GGGCATG", "uncleaved DNA left (log2)": 0.0937}
{"sequence": "GACAACC", "uncleaved DNA left (log2)": -0.112}
